Laboratory results from the supplement of paper PMC11417369.
This is one part of the list.

Tested on: PfSIP2 AP2 domain 1 (GST-tagged)
Experiment: gcPBM binding intensity (ln(normalized median fluorescence intensity)); higher = stronger DNA binding
Method in brief: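 Binding intensity is the highest Masliner-normalised natural-log median intensity over replicate spots in either probe orientation. To obtain it, GST-tagged P. falciparum DNA-binding domains made in E. coli were incubated for 1 h on an Agilent 4 × 180k array of primer-extended double-stranded 36-bp intergenic genomic probes plus negative controls. Detection used Alexa488 anti-GST antibody with scanning at 488 nm.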

Row | Sequence | gcPBM binding intensity (ln)
1 | AAAGATATGAAATATACACACTTCTTTGGTATTATT [CACACA_site6352] | 6.66
2 | AAAATTATAAATCTTGCACACAAAAAAAATAATAAA [CACACA_site8771] | 6.99
3 | TTTTCATTTATGTATATATTTATTTTGATTTAATGT [GTGCAC_negctrl_site607] | 6.67
4 | AATTATTTTATGTGAGGTACACCACACATGAAGGGG [XGTACX_site8450] | 7.66
5 | TAAATATATTCAATCACACACATTCGTTTTTTTTTT [CACACA_site234] | 6.87
6 | TATTGTTATGTCGTTATTAACTTTCTTTAATTAATT [CACACA_negctrl_site174] | 6.89
7 | AAATATTCATAGTATACACACATTTATATATAATCA [CACACA_site771] | 7.05
8 | TGAAAGTTCAATAATTGTACATGTGGAAATTCATAC [XGTACX_site1378] | 7.4
9 | AAAAAACACAGACACACACACATATACATACATACA [CACACA_site2666] | 7.51
10 | ATATTTCGTCTAAAAAGTACACAACAATAAAAAGTA [XGTACX_site6668] | 7.6
11 | TTTTTTAAATAATATTGTACAAAAAATGTATAAATA [XGTACX_site3010] | 6.97
12 | TTAGGTTTATACACTACACACATTATTCATAAAAAA [CACACA_site871] | 7.18
13 | TATATATATTTAAGGTGTACATAAATAACAAAATAT [XGTACX_site2641] | 7.47
14 | AAGTGTATACAGAAGAGTACAAACAATTTTTTTCTT [XGTACX_site7387] | 6.89
15 | TTAAATTAAAACAAATGTACAAAGTGCATATTTTTT [XGTACX_site8143] | 8.31
16 | ATTTTTTTTTCTTTCGCACACGTGAAAGAATTTCTA [CACACA_site2052] | 7.13
17 | ATATTATATTATATAACACACATTTTTCATAACACT [CACACA_site407] | 7.13
18 | ATAATTTAATACTAGTGTACAGAAAAAAAAAAAAAA [XGTACX_site6756] | 7.12
19 | ACATATATATATAAATATATATATATATAAATATAT [CACACA_negctrl_site895] | 7.48
20 | GTTGAACATAGATGCACACACATAAAATAAAAAAAA [CACACA_site5353] | 7.74
21 | TGTTTAAATTTTTTGTTTTTTTTTTTATAAAGCAAA [TGCATGCA_negctrl_site313] | 6.7
22 | TGAAGGTCAGTTCACAGTACCCAGTAACTCTACGGA [XGTACX_site2554] | 6.62

Row | Sequence | gcPBM binding intensity (ln)
23 | TATATTTTTTTAAAAAGTACTTTGTATATATATATA [XGTACX_site1300] | 9.42
24 | TTGTTGTTATTTAAAACACACATCAATCATCTTAAC [CACACA_site1142] | 6.84
25 | TTACGCATACTAATTACACACAAATAGATGAATATA [CACACA_site1338] | 7.14
26 | ATAAAAAAATAAATTAGTACATATATATATATATAT [XGTACX_site6971] | 9.5
27 | GTTTAACTGTTTTATACACACAATGTATACAATAAA [CACACA_site2959] | 7.02
28 | CATATATATATATGTACACACATTAATAAAAAAAAA [CACACA_site3230] | 7.41
29 | AGGTTATAAATAAATACACACATACAAAAATATGAC [CACACA_site4773] | 6.94
30 | AATCTGATCTTTTAAAGTACACAAAAAAAAAAAAAA [XGTACX_site115] | 6.92
31 | AAAAAAAAAAAAAAAAGTACGTATCAAAGCATCAAA [XGTACX_site880] | 7.59
32 | AATGAACACCTAAAATGTACGTACAAATATATTTTA [XGTACX_site7067] | 7.53
33 | ATGTTTAATTTTTTTTTGTCCCTATAGAAGTGTCAA [CACACA_negctrl_site1103] | 7
34 | AATGAATAAATAAACACACACACATATATAAATATG [CACACA_site6160] | 7.04
35 | AAAACAAACAGACACACACACATATATATATATATA [CACACA_site3655] | 9.6
36 | TTTGAGTGCACATACACACAGACATACATTTAAATA [CACACA_site3403] | 11.9
37 | ATAACCTAATAATACACACACATGAATATATAGAAT [CACACA_site963] | 7.09
38 | TTTAAAATTTTTTTTTTTTTTTTTTTTTTTTTTTAT [TGCATGCA_negctrl_site213] | 6.89
39 | ATATAAATATGTTCTGCACACAAATAAGTGTTTGAA [CACACA_site9291] | 7.13
40 | TAATATATATTATTATGTACATATATTGATTCCTTG [XGTACX_site6830] | 7.14
41 | TATTTATTAATATGTACACACATCAACCATATTAAC [CACACA_site7001] | 7.22
42 | CCAAAATACATTAAACGTACATGTCCTAATAAGATA [XGTACX_site21] | 6.96
43 | TTCTTATATATATACACACACAAAATATCTACAATG [CACACA_site736] | 7.2
44 | TTGTTTTTATAAATATTATTACAATGAAAAAAAAAA [TGCATGCA_negctrl_site185] | 6.98
